Paper PMC4594927 (PLoS ONE, 2015)

Molecular target: T1, BaIMPDH (Bacillus anthracis, UniProt A0A6L8P2U9)
Assay: biochemical
Assay type: biochemical
Settings: not given

First: C[C@H](Oc1ccccc1Cl)C(=O)Nc1ccc2oc(-c3ccncc3)nc2c1 [Q77]
Second: C=C(C)c1cccc(C(C)(C)NC(=O)Nc2ccc(Cl)c(C(=O)N(C)C)c2)c1 [P41]
The Ki of the first is 3.5-fold higher: 130 ± 20 nM for the first, 37 ± 23 nM for the second. The second binds more tightly here.

Same assay, conditions: read-out: Ki,app BaIMPDH

Work on C=C(C)c1cccc(C(C)(C)NC(=O)Nc2ccc3ccccc3n2)c1 [P54] yielded a Ki of 400 ± 100 nM.

Test system: B. anthracis
Assay: not given
Settings: cited from earlier work

First: C=C(C)c1cccc(C(C)(C)NC(=O)Nc2ccc(Cl)c(C(=O)N(C)C)c2)c1 [P41]
Second: C[C@H](Nc1cccc(Cl)c1Cl)C(=O)Nc1ccc2oc(-c3ccncc3)nc2c1 [Q67]
The “B. anthracis MIC” value of the first is 2.1-fold higher: 25 µM for the first, 12 µM for the second.

Molecular target: T1, BaIMPDH
Assay: not given
Settings: read-out: B. anthracis Ki,app; cited from earlier work

In the case of C[C@H](Nc1cccc(Cl)c1Cl)C(=O)Nc1ccc2oc(-c3ccncc3)nc2c1 [Q67], the Ki is given as 5 ± 1 nM.

Same assay, conditions: read-out: Ki,app BaIMPDH; cited from earlier work

CC(=NO)c1cccc(C(C)(C)NC(=O)Nc2ccc(Cl)cc2)c1 [P37] and CC(=NO)c1cccc(C(C)(C)NC(=O)Nc2ccc(Cl)c([N+](=O)[O-])c2)c1 [P96] are within error of each other in Ki: 20 ± 6 nM for the first, 14 ± 1 nM for the second.

Going from CC(=O)c1cccc(C(C)(C)NC(=O)Nc2ccc(Cl)c(C(N)=O)c2)c1 [P25] to C=C(C)c1cccc(C(C)(C)NC(=O)Nc2ccc(Cl)c(C(N)=O)c2)c1 [P16], the Ki falls from 300 ± 100 nM to 70 ± 30 nM (4.3-fold). The second binds more tightly here.

Compared with C=C(C)c1cccc(C(C)(C)NC(=O)Nc2cccc(Cl)c2)c1 [P15], C=C(C)c1cccc(C(C)(C)NC(=O)Nc2ccc(Cl)c(Cl)c2)c1 [P13] is 6-fold lower in Ki: 215 ± 100 nM for the first, 36 ± 7 nM for the second.

Compared with CC(=O)c1cccc(C(C)(C)NC(=O)Nc2ccc(Cl)c(C(F)(F)F)c2)c1 [P80], CC(=NO)c1cccc(C(C)(C)NC(=O)Nc2ccc(Cl)c(C(F)(F)F)c2)c1 [P82] is 15-fold lower in Ki: 30 ± 10 nM for the first, 2 ± 0.5 nM for the second.

CON=C(C)c1cccc(C(C)(C)NC(=O)Nc2ccc(Cl)c(C(N)=O)c2)c1 [P74] and C=C(C)c1cccc(C(C)(C)NC(=O)Nc2ccc(Cl)c(C(=O)NC)c2)c1 [P42] are within error of each other in Ki: 80 ± 20 nM for the first, 180 ± 90 nM for the second.

CC(=NO)c1cccc(C(C)(C)NC(=O)Nc2ccc3cccnc3c2)c1 [P27] and CC(=O)c1cccc(C(C)(C)NC(=O)Nc2ccc3cccnc3c2)c1 [P24] are within error of each other in Ki: 40 ± 10 nM for the first, 30 ± 10 nM for the second.

First: C=C(C)c1cccc(C(C)(C)NC(=O)Nc2ccccc2Cl)c1 [P39]
Second: C=C(C)c1cccc(C(C)(C)NC(=O)Nc2ccccc2)c1 [P38]
The Ki of the first is higher: greater than 5000 nM for the first, 570 ± 120 nM for the second.

First: C=C(C)c1cccc(C(C)(C)NC(=O)Nc2ccc(Cl)c(OC)c2)c1 [P105]
Second: C=C(C)c1cccc(C(C)(C)NC(=O)Nc2ccc(OC)cc2)c1 [P102]
The Ki of the first is 5.8-fold lower: 40 ± 10 nM for the first, 230 ± 20 nM for the second.

Compared with CC(C)c1cccc(C(C)(C)NC(=O)Nc2ccc3ccccc3c2)c1 [P22], C=C(C)c1cccc(C(C)(C)NC(=O)Nc2ccc3ccccc3c2)c1 [P14] is lower in Ki: greater than 5000 nM for the first, 47 ± 4 nM for the second.

Going from C=C(C)c1cccc(C(C)(C)NC(=O)Nc2cccc3ccccc23)c1 [P17] to C=C(C)c1cccc(C(C)(C)NC(=O)Nc2cnc3ccccc3c2)c1 [P59], the Ki falls from greater than 5000 nM to 490 ± 120 nM.

First: C=C(C)c1cccc(C(C)(C)NC(=O)Nc2ccc3ncccc3c2)c1 [P55]
Second: C=C(C)c1cccc(C(C)(C)NC(=O)Nc2ccc(C(C)(C)C)cc2)c1 [P104]
The Ki of the first is lower: 85 ± 15 nM for the first, greater than 5000 nM for the second.
